Test results: publication PMC8527048
These are yes or no findings as the source states them, for the method shown. Binding seen in cells or lysates may run through a third protein. Some entries that bind do so weakly or less than the wild type. Sequences can lack the tags named with a protein. Blank lines part the entries; values can stand above or below the molecule they belong to.

By UniProt entry, the sequences of proteins in these tests, tags left out. Residues count along the entry.
UniProt P70302, residues 23-685: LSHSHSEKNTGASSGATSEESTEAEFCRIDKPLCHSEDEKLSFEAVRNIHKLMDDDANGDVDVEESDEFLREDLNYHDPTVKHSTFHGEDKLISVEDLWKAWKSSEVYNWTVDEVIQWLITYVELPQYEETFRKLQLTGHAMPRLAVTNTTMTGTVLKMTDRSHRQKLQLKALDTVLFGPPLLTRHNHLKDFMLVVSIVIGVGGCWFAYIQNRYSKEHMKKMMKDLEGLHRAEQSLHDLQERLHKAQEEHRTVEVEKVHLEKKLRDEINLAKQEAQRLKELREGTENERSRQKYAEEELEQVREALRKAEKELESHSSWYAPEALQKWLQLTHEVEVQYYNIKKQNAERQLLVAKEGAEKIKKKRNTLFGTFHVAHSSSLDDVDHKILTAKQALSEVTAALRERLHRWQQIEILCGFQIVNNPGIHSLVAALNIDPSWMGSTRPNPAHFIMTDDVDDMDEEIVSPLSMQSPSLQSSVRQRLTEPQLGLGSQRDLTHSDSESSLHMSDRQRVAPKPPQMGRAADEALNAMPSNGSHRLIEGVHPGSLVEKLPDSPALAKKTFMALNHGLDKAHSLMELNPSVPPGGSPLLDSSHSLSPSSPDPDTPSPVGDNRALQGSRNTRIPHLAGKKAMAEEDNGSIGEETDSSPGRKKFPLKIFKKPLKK
UniProt Q13586, residues 23-685: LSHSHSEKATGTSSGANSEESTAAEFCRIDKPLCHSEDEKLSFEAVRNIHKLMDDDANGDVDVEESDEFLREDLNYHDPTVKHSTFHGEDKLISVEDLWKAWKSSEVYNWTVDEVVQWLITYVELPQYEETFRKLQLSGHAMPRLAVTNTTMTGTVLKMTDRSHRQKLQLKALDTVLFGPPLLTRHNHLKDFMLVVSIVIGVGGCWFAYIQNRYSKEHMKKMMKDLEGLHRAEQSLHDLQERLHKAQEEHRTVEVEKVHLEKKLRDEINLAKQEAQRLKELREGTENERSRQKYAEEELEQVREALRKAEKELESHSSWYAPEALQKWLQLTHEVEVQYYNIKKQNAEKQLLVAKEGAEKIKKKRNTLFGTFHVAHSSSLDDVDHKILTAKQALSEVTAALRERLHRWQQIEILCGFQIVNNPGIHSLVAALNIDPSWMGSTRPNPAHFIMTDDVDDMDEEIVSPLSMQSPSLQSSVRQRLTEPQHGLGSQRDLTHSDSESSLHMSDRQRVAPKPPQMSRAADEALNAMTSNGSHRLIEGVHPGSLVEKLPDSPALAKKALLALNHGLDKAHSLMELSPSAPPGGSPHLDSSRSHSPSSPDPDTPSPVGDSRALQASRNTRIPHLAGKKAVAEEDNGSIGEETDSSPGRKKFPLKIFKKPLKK

Experiments:
GST-ORMDL3 [1] = biological target: T1, GST-ORMDL3 (UniProt Q9CPZ6); test: pull-down; GST pull-downs combined with BMMC lysates containing endogenous levels of the proteins; immunoblot; only the target purified
T1 sequence: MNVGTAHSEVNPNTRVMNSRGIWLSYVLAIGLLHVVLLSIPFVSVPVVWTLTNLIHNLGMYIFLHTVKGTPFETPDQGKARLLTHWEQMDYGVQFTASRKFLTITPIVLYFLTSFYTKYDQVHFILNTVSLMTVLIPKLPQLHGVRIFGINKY

GST-5-LO [2] = biological target: T2, GST-5-LO (UniProt P48999); test: as above
T2 sequence: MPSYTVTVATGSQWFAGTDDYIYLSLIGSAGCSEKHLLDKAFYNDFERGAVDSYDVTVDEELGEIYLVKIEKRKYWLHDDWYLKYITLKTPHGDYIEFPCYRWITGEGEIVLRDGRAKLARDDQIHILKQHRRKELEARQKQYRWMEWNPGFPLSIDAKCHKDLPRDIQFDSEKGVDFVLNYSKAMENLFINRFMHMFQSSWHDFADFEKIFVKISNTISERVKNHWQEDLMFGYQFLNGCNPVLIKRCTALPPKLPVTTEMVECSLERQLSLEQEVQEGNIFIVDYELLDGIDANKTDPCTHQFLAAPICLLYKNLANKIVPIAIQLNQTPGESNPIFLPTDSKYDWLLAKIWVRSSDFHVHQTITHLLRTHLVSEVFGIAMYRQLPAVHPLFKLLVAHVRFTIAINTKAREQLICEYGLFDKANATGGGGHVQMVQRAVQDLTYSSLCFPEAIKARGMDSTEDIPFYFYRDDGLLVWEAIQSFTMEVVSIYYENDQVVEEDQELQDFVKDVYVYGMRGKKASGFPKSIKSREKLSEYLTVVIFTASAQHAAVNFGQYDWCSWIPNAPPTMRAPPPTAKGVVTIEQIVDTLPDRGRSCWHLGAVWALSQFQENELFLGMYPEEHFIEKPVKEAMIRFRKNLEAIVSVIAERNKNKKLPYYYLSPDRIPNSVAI

[3] = biological target: T3, TS-5-LO (Twin-Strep-tagged 5-lipoxygenase) in HEK293FT cells (UniProt P48999); test: pull-down; Strep-Tactin Superflow resin holds the TS-tagged protein from postnuclear lysates (1% CHAPS, 50 mM Hepes-KOH, 150 mM KOAc, pH 6.8, 4°C) of transduced HEK293FT cells, resting or activated with thapsigargin (0, 3, 15, 25 min); immunoblot
T3 sequence: T2 sequence

GST-ORMDL3 [4] = biological target: T1, GST-ORMDL3; test: pull-down; GST pull-downs combined with BMMC lysates containing endogenous levels of the proteins; immunoblot; only the target purified; remark: listed apart in the source
ORMDL3-MYC = biological target: T4, ORMDL3-MYC (UniProt Q9CPZ6); test: condition: only cells not activated with thapsigargin; co-IP; anti-MYC immunoprecipitate of ORMDL3-MYC from BMMCL not activated with thapsigargin; SDS-PAGE, Coomassie blue staining
T4 sequence: T1 sequence

GST-ORMDL3 [5] = biological target: T1, GST-ORMDL3; test: pull-down; GST-tagged protein from bacterial lysate on glutathione agarose beads, washed; in vitro-translated 35S-methionine-labeled protein added, 1 h at 4°C, Hepes-KOH buffer pH 6.8 with 1% CHAPS and 5 mM DTT; autoradiography; only the target purified
GST-5-LO [6] = biological target: T2, GST-5-LO; test: as above
GST-FLAP = biological target: T5, GST-FLAP (UniProt P30355); test: as above
T5 sequence: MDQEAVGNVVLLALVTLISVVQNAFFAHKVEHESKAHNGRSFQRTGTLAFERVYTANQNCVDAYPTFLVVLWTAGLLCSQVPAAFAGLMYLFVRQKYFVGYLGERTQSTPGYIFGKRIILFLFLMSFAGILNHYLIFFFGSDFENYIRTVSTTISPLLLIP

[7] = biological target: T6, GST-LTC4 synthase (LTC4S) (UniProt Q60860); test: as above
T6 sequence: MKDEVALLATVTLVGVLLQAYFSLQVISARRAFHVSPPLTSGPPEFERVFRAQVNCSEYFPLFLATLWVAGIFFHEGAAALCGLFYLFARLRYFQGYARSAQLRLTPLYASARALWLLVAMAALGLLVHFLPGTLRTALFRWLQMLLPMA

B1: 5-lipoxygenase (5-LO), endogenous in mouse mast cells (enzyme, UniProt P48999 1-674)
chain: T2 sequence
binding (GST-ORMDL3 [4]): binds
binding (ORMDL3-MYC): no binding

B2: ^35S-5-LO (enzyme, UniProt P48999 1-674)
chain: T2 sequence
modifications: 35S-labeled L-methionine
binding (GST-ORMDL3 [5]): binds
binding (GST-5-LO [6]): binds
binding (GST-FLAP): binds
binding [7]: binds

Now from value to molecule:

binding (GST-ORMDL3 [1]): no binding
binding (GST-5-LO [2]): no binding
Molecule: stromal interaction molecule 1 (STIM1), endogenous in BMMC (from UniProt P70302 23-685)

binding [3]: no binding
Molecule: stromal interaction molecule 1 (STIM1), endogenously expressed in HEK293FT (from UniProt Q13586 23-685)
